# Laboratory results published in the supplement of paper PMC7826260.
# Some of the results follow. One pool of 16,384 single-stranded DNAs met each Rep nickase domain in vitro (3 µM enzyme, 1 h, 37 °C); shown is the middle of each 90-letter strand. Uncut reads are compared with the no-enzyme pool on a log2 scale; strong cutting gives strongly negative numbers. There is no active / inactive call. The scaling is to total reads; values above 0 arise when much of the pool is cut.
# Columns and labels:
# Experiment in all cases: uncleaved DNA left, log2 of reads against the no-enzyme library (log2 ratio); higher = less cleavage (more negative = more Rep cleavage of the k-mer); sequences stand for … in CTCGTCCG…ACCGGAGA
# [1] = test system: T1, Rep nickase domain of Muscovy duck circovirus
# T1 sequence (residues 1-111 of Rep, tag left off): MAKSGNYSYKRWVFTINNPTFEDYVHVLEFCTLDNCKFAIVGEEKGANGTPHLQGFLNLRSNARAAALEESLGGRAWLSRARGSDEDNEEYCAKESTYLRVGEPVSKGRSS
# Procedure: (§1)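 A pool of 90-nt single-stranded DNAs with seven random bases just before the constant AC of the nick site (name = the seven bases) was cut by 3 µM recombinant His6-SUMO-tagged Rep nickase domain (300 nM DNA, 50 mM HEPES pH 8.0, 50 mM NaCl, 1 mM MnCl2, 1 h, 37 °C, three replicates). Uncut DNA was amplified and sequenced.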
# [2] = test system: T2, Rep nickase domain of banana bunchy top virus
# T2 sequence (residues 1-94 of Rep, tag left off): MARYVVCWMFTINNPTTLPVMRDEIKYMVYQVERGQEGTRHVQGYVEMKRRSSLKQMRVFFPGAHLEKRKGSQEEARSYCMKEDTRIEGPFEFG
# Procedure: as §1
# [3] = test system: T3, Rep nickase domain of cabbage leaf curl virus
# T3 sequence (residues 1-116 of Rep, tag left off): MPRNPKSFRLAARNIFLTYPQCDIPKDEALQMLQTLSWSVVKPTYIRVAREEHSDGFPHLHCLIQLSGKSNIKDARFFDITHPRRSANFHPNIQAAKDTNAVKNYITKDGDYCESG
# Procedure: as §1
# [4] = test system: T4, Rep nickase domain of chickpea chlorotic dwarf virus
# T4 sequence (residues 1-124 of Rep, tag left off): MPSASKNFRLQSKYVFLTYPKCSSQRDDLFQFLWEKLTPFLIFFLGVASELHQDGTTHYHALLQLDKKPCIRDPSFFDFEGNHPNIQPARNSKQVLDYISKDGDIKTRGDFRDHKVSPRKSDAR
# Procedure: as §1
# [5] = test system: T5, Rep nickase domain of faba bean necrotic yellows virus
# T5 sequence (residues 1-98 of Rep, tag left off): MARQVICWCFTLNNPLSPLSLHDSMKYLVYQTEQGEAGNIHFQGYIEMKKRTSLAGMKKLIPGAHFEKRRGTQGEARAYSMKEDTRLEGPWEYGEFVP
# Procedure: as §1
# [6] = test system: T6, Rep nickase domain of maize striate mosaic virus
# T6 sequence (residues 1-117 of Rep, tag left off): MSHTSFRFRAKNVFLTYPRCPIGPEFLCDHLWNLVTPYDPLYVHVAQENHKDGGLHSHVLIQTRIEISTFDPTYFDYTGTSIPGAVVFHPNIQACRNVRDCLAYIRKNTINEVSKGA
# Procedure: as §1
# [7] = test system: T7, Rep nickase domain of porcine circovirus 2
# T7 sequence (residues 2-116 of Rep, tag left off): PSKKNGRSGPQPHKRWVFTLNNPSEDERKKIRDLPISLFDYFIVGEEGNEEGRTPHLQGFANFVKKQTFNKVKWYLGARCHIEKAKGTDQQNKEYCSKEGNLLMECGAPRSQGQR
# Procedure: as §1
# [8] = test system: T8, Rep nickase domain of tomato golden mosaic virus
# T8 sequence (residues 1-124 of Rep, tag left off): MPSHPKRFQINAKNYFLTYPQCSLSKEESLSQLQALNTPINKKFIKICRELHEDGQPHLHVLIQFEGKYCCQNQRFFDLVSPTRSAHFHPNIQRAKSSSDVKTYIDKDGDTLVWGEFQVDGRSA
# Procedure: as §1
# [9] = test system: T9, Rep nickase domain of tomato yellow leaf curl virus
# T9 sequence (residues 1-136 of Rep, tag left off): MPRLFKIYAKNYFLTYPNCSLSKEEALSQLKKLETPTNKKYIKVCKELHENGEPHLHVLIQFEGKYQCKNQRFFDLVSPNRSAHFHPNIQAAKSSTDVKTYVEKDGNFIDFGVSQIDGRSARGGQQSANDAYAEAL
# Procedure: as §1
# [10] = test system: T10, Rep nickase domain of wheat dwarf virus
# T10 sequence (residues 1-137 of Rep, tag left off): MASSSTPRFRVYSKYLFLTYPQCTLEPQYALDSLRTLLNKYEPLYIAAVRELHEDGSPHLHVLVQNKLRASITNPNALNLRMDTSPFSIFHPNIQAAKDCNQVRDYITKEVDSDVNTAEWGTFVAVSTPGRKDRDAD
# Procedure: as §1
Sequence,uncleaved DNA left (log2) [1],uncleaved DNA left (log2) [2],uncleaved DNA left (log2) [3],uncleaved DNA left (log2) [4],uncleaved DNA left (log2) [5],uncleaved DNA left (log2) [6],uncleaved DNA left (log2) [7],uncleaved DNA left (log2) [8],uncleaved DNA left (log2) [9],uncleaved DNA left (log2) [10]
CTCGACT,0.0194,-0.0804,0.0853,-0.328,-0.0186,0.862,-0.516,-0.0167,0.0651,0.0492
AAACTGC,-0.0043,0.0263,-0.256,-0.236,0.0112,-0.566,0.227,0.0617,-0.0863,0.0369
GAAGACG,0.167,0.024,-0.142,0.0425,0.0253,-0.146,0.216,0.128,0.0195,0.0401
GCACGGT,0.154,0.093,0.418,0.872,0.0815,1.19,0.125,0.0587,0.00283,0.0768
GTGTCGA,0.051,0.00985,0.184,0.462,-0.0608,0.251,0.126,0.0447,0.0522,0.125
GCCTTGC,-0.0252,0.000234,-0.645,-0.464,-0.0332,-1.15,0.00727,-0.0208,0.00509,-0.171
GATCGCA,0.0768,0.0846,0.0306,-0.0456,-0.0602,-0.392,0.0381,0.031,0.0697,0.00586
CAACTCT,-0.0668,0.00939,-1.92,-2.94,-0.0284,-1.13,-0.458,-0.23,-0.158,-0.654
GAAGAAT,0.207,0.236,0.31,0.853,0.025,1.67,0.115,0.209,0.041,0.169
ACTCCTC,-0.068,-0.0356,-0.0554,0.231,0.0228,0.172,-0.0879,-0.0344,-0.107,-0.0631
CTCCTCC,0.0502,-0.0091,0.179,0.222,0.0326,0.639,0.126,-0.0776,-0.0157,0.0366
CATTGCA,-0.0631,-0.0816,-0.498,0.794,-0.0115,0.122,0.046,-0.0972,0.109,-0.00274
TACTTGT,-2.12,-0.606,-0.246,-0.668,-0.0552,0.337,-3.54,-0.0725,-0.112,-0.116
CAATCCT,-2.36,-0.227,-4.06,-3.56,-0.0213,-2.98,-3.78,-3.62,-0.149,-3.65
ACAGGTA,-0.0698,-0.106,-0.117,-0.383,-0.104,-0.173,0.0846,0.136,0.0306,-0.0248
ACCTCAC,-0.101,-0.043,-0.0506,-0.464,-0.000564,-0.402,-0.0536,0.0401,-0.131,0.0674
ATAGTAA,0.0677,0.0393,-0.0807,-0.322,0.00932,-0.405,0.043,0.048,-0.0436,0.0721
CATATAC,0.0731,0.0057,-0.152,-1.12,-0.0264,-1.04,0.119,-0.00528,0.0188,0.0195
TATCTGC,0.031,-0.0283,-0.3,-0.518,-0.00662,-0.941,0.116,-0.262,0.0593,0.000705
ATGGATT,0.144,0.185,0.398,1.47,0.209,1.76,0.242,0.262,0.00186,0.219

Sequence,uncleaved DNA left (log2) [1],uncleaved DNA left (log2) [2],uncleaved DNA left (log2) [3],uncleaved DNA left (log2) [4],uncleaved DNA left (log2) [5],uncleaved DNA left (log2) [6],uncleaved DNA left (log2) [7],uncleaved DNA left (log2) [8],uncleaved DNA left (log2) [9],uncleaved DNA left (log2) [10]
GGTCTAT,-0.00399,0.0584,0.597,1.36,0.102,1.99,0.0356,0.011,-0.00601,0.156
GCCGACA,0.079,-0.109,0.0865,0.383,0.0473,0.363,0.000244,-0.0526,-0.111,0.0676
ATGATTC,-0.0381,-0.0285,0.0343,-0.146,-0.0568,-0.91,0.0705,-0.0965,-0.165,-0.0508
ACACGAA,-0.0974,-0.0336,-0.544,-0.412,-0.057,-1.06,0.0616,0.1,-0.0689,-0.109
GGTGATA,0.0446,0.0504,0.626,1.47,-0.00589,2.05,0.0801,0.0379,0.00651,0.098
TGAACAT,-0.00904,-0.0111,0.743,1.69,-0.0202,1.98,0.229,-0.0291,0.103,0.0755
GCTTGGT,-0.0869,0.0989,0.476,1.72,0.0752,1.26,-0.466,0.116,0.106,0.0527
TTTTAAC,0.00402,-0.00372,0.0242,-1.35,0.0263,0.384,0.0454,0.0817,0.00219,0.00582
CATAAAC,0.0277,-0.083,-0.0509,-0.648,0.0083,-0.984,0.093,-0.0425,-0.0841,0.0337
GCCTCCG,-0.0821,-0.127,-0.668,-0.473,-0.0658,-0.89,0.0214,-0.0753,0.0132,-0.229
TAATCCT,-4.04,-0.868,-5.26,-3.71,-0.2,-3.58,-4.32,-4.54,-1.38,-4.59
TTAAGCC,-0.0424,-0.107,-3.14,-2.9,0.00622,-2.38,-0.0409,-0.661,-0.154,-1.58
ACAGCAC,-0.0262,-0.12,-0.602,-0.805,-0.0654,-0.937,0.078,-0.0405,-0.139,-0.165
GGACGAT,-0.00398,-0.0348,0.757,1.74,-0.00646,2.2,0.0458,-0.105,-0.173,0.00186
CCGGGGG,-0.14,-0.0809,0.294,0.709,-0.0946,1.14,0.112,-0.0187,-0.103,-0.177
CGGTCTT,-1.02,-0.27,0.134,-0.349,-0.26,1.03,-2.74,-0.278,-0.0668,-0.0423
GCGAGAT,0.0571,0.097,0.409,1.21,0.00691,1.43,0.0333,-0.0229,0.0184,0.0731
TTGGAGA,0.0168,-0.129,-0.0427,-0.0148,-0.0492,-0.725,0.0804,-0.101,-0.0782,-0.0733
ATTCCAG,0.0714,0.134,-0.204,-0.0891,0.114,-0.856,-0.078,0.0954,0.273,0.00706
AAATCTC,-0.106,0.0471,-3.16,-2.78,0.0733,-0.0879,-0.438,-1.52,0.144,-2.05

Sequence,uncleaved DNA left (log2) [1],uncleaved DNA left (log2) [2],uncleaved DNA left (log2) [3],uncleaved DNA left (log2) [4],uncleaved DNA left (log2) [5],uncleaved DNA left (log2) [6],uncleaved DNA left (log2) [7],uncleaved DNA left (log2) [8],uncleaved DNA left (log2) [9],uncleaved DNA left (log2) [10]
GGATTGG,-0.0751,-0.0324,-0.288,-0.204,0.00747,-0.7,-0.00735,-0.143,-0.0592,-0.144
TTTGGAC,0.0449,0.0838,0.29,1.18,0.03,1.29,0.152,0.0237,0.0284,0.135
GATAGCA,-0.0341,-0.0128,-0.053,0.132,-0.0398,-0.0604,-0.0104,-0.0709,-0.0833,0.00819
TCCAAAG,-0.0478,-0.0329,-0.747,-0.582,0.0107,-1.21,0.161,0.0844,0.116,0.0192
CTTCGTA,-0.0162,0.0126,-0.2,-1.18,0.0168,-0.993,-0.111,-0.0206,0.0684,0.0688
CTACCGC,-0.001,-0.0434,-0.302,-1.41,-0.000753,-0.714,-0.17,-0.0918,-0.094,0.0185
GTTTCCA,-0.0854,0.0372,0.31,0.818,-0.0952,1.8,0.0976,0.0621,0.0596,0.00941
TTCGTAA,0.0134,-0.155,0.00427,-0.225,0.0453,-0.214,-0.0417,0.0485,-0.0606,0.0862
GAGAACG,-0.0161,-0.0165,-0.602,-0.408,0.0272,-0.802,0.188,-0.0638,-0.0945,-0.0783
CTGGCTC,0.13,0.109,0.127,0.0617,-0.056,0.294,0.152,-0.0689,0.00611,-0.0883
GGCTTTG,0.0801,0.105,0.199,0.647,0.0943,1.37,0.153,0.0141,0.0239,0.0476
AGCCAAC,-0.0558,0.00308,-0.115,-0.439,-0.0778,-0.00753,-0.0529,-0.0324,-0.0136,-0.0121
GGATTCC,-0.0909,0.0108,0.592,1.41,-0.129,1.88,-0.074,-0.0696,0.0581,0.0177
TCCTTAA,-0.0154,-0.0594,0.0306,-0.362,-0.115,-0.486,-0.0763,-0.00235,-0.0816,-0.067
TAGAGTT,0.0514,-2.37,-2.66,-2.61,-1.39,-0.255,-3.57,-0.271,0.122,-0.298
TAAAATT,-0.716,-0.948,-4.47,-3.47,-0.0701,-3.57,-3.61,-3.91,-0.134,-4.16
TCGAAAG,0.0238,-0.0212,-0.358,-0.369,0.0367,-1.13,0.153,-0.0774,0.00926,-0.088
GTTAGCC,0.132,0.0127,0.246,0.731,0.104,0.778,0.139,0.0497,0.0779,0.0714
GTGAGGA,0.13,0.117,0.33,0.826,0.0886,0.689,0.126,0.11,0.0577,0.123
ATTAGCG,-0.1,-0.0581,-0.563,0.98,0.00433,-0.0409,0.0109,-0.0971,0.0722,-0.127
